In PubChem BioAssay AID1963576 (National Center for Advancing Translational Sciences (NCATS), 2024):
In all, about 46,000 compounds went through this assay and about 60 (0.1%) were called active. Inconclusive results (about 3%) are left out. Calls come from the whole dose curve; as a rule, active = well fitted inhibition curve with a large enough effect; inconclusive = small, poorly fitted or top-dose-only effect; inactive = no such curve, though single readings can be large or run the other way. The list shows a part of the results.

assay: Primary qHTS assay for Inhibitors of ovarian cancer metastasis using an organotypic tumor microenvironment (TME) model.; note: nearly all actives have a fitted effect of over 65% in size;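 for activity change, negative = inhibition: plate controls were DMSO wells for no effect and tomatine positive control wells for full effect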; settings: SKOV3ip1-GFP adhesion/invasion on 3D omental model, fluorescence; series mostly up to 45.8 µM; activity change, negative = inhibition: at the top concentration
Summary of the method: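 Adhesion/invasion was scored as fixed GFP-labeled SKOV3ip1 cell counts (488/509 nm), normalized to DMSO and tomatine controls. Cancer cells in serum-free medium, with four compound doses (0.36-46 umol/L), sat 2 hr at RT then 16 hr at 37 C on a 48 hr fibroblast/mesothelial/ECM culture.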

Activity change, negative = inhibition, inactive:
COc1ccc(Cn2c(SCc3ccc(C(=O)NCc4cccs4)cc3)nc3cccnc32)cc1 -5.47%, COc1ccc(C2NC(=O)N(C)C3=C2C(=O)N(c2ccc(F)cc2)C3)cc1 (configuration not stated) 1.16%, O=C(NCCc1nc2ccccc2n1CCCOc1ccc(Cl)cc1)C1CCCCC1 -8.73%, O=C(Nc1c2c(nn1-c1ccc(Cl)cc1)CS(=O)(=O)C2)c1ccccc1F 29.3%, Fc1ccc(Cn2c(-c3cccc(Br)c3)nc3ccccc32)cc1 -7.21%, Cc1ccc(NC(=O)c2sc(-n3nc(C)c(Cc4ccc5c(c4)OCO5)c3C)nc2C)cc1C 0.919%, CCOc1cc(C2c3c(-c4ccccc4O)n[nH]c3C(=O)N2Cc2cccnc2)ccc1O (configuration not stated) -3.63%, COc1ccc(C(=O)Nc2noc3ccccc23)cc1 -1.71%, CNS(=O)(=O)c1cn(CC(=O)N2CCN(c3cc(C)ccc3C)CC2)cc1S(=O)(=O)NC -5.67%, Cc1cc(C)cc(NC(=O)CSCc2cc(=O)c3ccc(C)c(C)c3[nH]2)c1 -3.58%, CCOC(=O)CN1C(=O)c2cccnc2Oc2ccccc21 -0.799%, COc1ccc(NC(=O)CSc2nc(-c3ccco3)nc3cc(=O)[nH]n23)cc1 -4.68%, COc1ccc(CCNC(=O)CCn2c(=O)c3cccn3c3cccnc32)cc1OC -3.7%, CCc1ccccc1Nc1nc2ccccc2n2cnnc12 1.06%, CCCCN(c1ccccc1)S(=O)(=O)c1ccc2c(c1)CC(C)N2C(=O)C1CC1 (configuration not stated) -9.02%, NC(=O)C1CCN(C(=O)Cn2c(-c3cccs3)cc3ccccc32)CC1 -12%, Cc1cc(C(=O)Nc2c(C)nn(Cc3ccc(F)cc3)c2C)no1 6.28%, CCOc1ccc(NC(=O)CN2CCN(CC(=O)Nc3ccccc3OCC)CC2)cc1 -3.77%, CCC(C)(C)c1ccc(CC(C)CN2C[C@@H](C)O[C@@H](C)C2)cc1 (some centres not stated) -16.9%, CCOc1cc(C(=O)N2CCC(c3ccncc3)CC2)cc(OCC)c1OCC 5.24%, COc1ccc(Cl)cc1NC(=O)CSc1nc(-c2ccco2)cc(C(F)(F)F)n1 -7.37%, Cc1cccc(C)c1OC(=O)CSc1nnc(-c2cccs2)o1 -3.97%, CCOC(=O)c1ccc(NC(=O)COC(=O)c2cn(CC)c3nc(C)ccc3c2=O)cc1 -5.65%, COc1ccccc1-n1nc(-c2ccccc2)c2cnc3cc(C(F)(F)F)ccc3c21 -10.6%, CC1CN(S(=O)(=O)c2ccc3c(c2)NC(=O)CC(=O)N3)c2ccccc2O1 (configuration not stated) -2.12%, Cc1ccc(C)c(CN2C(=O)c3ccccc3S(=O)(=O)c3ccc(C(=O)N4CCN(c5ccccc5F)CC4)cc32)c1 19.2%, CCOC(=O)c1ccc(C#Cc2ccc3c(c2)C(C)(C)CCS3)nc1 -13.5%, CCOC(=O)C1=C(CN2CCN(c3cc(C)ccc3C)CC2)NC(=O)NC1c1ccc(Cl)cc1 (configuration not stated) -1.84%, COc1cccc(NC(=O)Cn2c(=O)n(CCCCC(=O)NCCc3ccccc3)c(=O)c3ccccc32)c1 -0.923%, CCS(=O)(=O)N1CCc2cc(C(=O)Nc3cc(C(F)(F)F)ccc3Cl)ccc21 7.32%, Cc1ccccc1C(=O)Nc1ccc2c(c1)CCCN2C(=O)c1cccs1 -9.88%, CSc1ccc(CNC(=O)CCn2c(=O)c3cccn3c3ccc(F)cc32)cc1 8.27%, Cc1cccc(NC(=O)c2ccc(-c3nc(CSc4ccccc4)c(C)o3)cc2)c1C -17.9%, COc1ccccc1CNC(=O)c1cnc2sc(N3CCCCCC3)nn2c1=O -0.54%, O=C(CSc1nnc2ccc3ccccc3n12)c1ccc(F)cc1 0.266%, Cc1ccc(C(=O)Nc2onc3c2CCCC3)cc1 -11.1%, COCCNC(=O)CCN1C(=O)c2cccnc2Oc2ccc(C)cc21 -0.876%, COc1ccc(C(=O)Nc2ccc(-c3nc4ccccc4s3)cc2C)cc1Cl 4.43%, COC(=O)c1cc2occc2n1Cc1cccc(C)c1 -0.731%, COc1ccc(C(=O)N2CCC(c3nc(-c4ccc(S(=O)(=O)N5CCCC5)cc4)no3)CC2)cc1 0.0572%, COc1ccc(-n2c(=O)c3ccccc3n(Cc3ccccc3C)c2=O)c(OC)c1 -16.6%, CC(=O)Nc1nonc1-c1nnc(SCC(=O)Nc2ccc(C)c(Cl)c2)n1-c1ccccc1 -45.4%, Cc1ccc(-n2nc(C(=O)Nc3ccc(C)c(F)c3)c3c4ccccc4n(C)c3c2=O)cc1 10.4%, NC(=O)Cn1c(=O)n(CCCCCC(=O)NCc2ccccc2)c(=O)c2sccc21 4.3%, Cc1ccc(-n2nc(CO)c(C(=O)NCCCc3ccccc3)n2)cc1 -1.48%, CCc1ccccc1Nc1nc2cc(Cl)c(Cl)cc2nc1-n1nc(C)cc1C -3.68%, CCOc1ccc(C(=O)c2cnc3ccc(Cl)cc3c2S(=O)(=O)c2ccc(C)cc2)cc1 7.2%, COc1cccc(Cn2c(NCc3ccc(C)cc3)nc3c2c(=O)n(C)c(=O)n3C)c1 2.25%, CCOc1ccc(CNC(=O)C2CCCN(S(=O)(=O)N(C)c3ccc(F)cc3)C2)cc1OC (configuration not stated) 15.2%, Cc1ccc(-n2ncc3c(Nc4ccccc4C)ncnc32)cc1 12.5%, CC(=O)Nc1ccc(NS(=O)(=O)c2c(C)nc3sccn3c2=O)cc1 -1.06%, O=C(NC1CC1)c1cccc(-c2ccc3c(NC(=O)C4CC4)n[nH]c3c2)c1 -25.3%, Cc1nn(-c2ccc3nnc(C)n3n2)c(C)c1CCC(=O)Nc1ccc(OC(F)(F)F)cc1 1.53%, CC(=O)c1ccc(NC(=O)c2ccc(-c3nc(COc4ccc(C)cc4)c(C)o3)cc2)cc1 -0.627%, CCC(=O)N1CCc2cc(S(=O)(=O)NC(CC(C)C)C(=O)NCc3ccc(F)cc3)ccc21 (configuration not stated) -4.63%, COC(=O)c1cc(-c2ccc(OC)c(OC)c2)c2c(=O)[nH]c(=O)n(C)c2n1 0.159%, Cc1ccc(S(=O)(=O)c2nc(-c3ccco3)oc2SCC(=O)Nc2ccc(F)cc2)cc1 4.52%, CC1Cc2cc(S(=O)(=O)CCC(=O)Nc3ccc(F)c(Cl)c3)ccc2N1C(=O)C1CC1 (configuration not stated) -3.29%, Cc1cccc(C)c1NC(=O)Cn1c(=O)n(Cc2ccco2)c(=O)c2ccc(C(=O)NC3CCCC3)cc21 -6.93%, Cc1ccc(NC(=O)Cn2c(=O)n(Cc3nc(C)no3)c(=O)c3cc4c(cc32)OCO4)c(Cl)c1 -10%, COc1ccc(S(=O)(=O)NCC(c2ccco2)N2CCN(c3ccc(F)cc3)CC2)cc1C (configuration not stated) -1.81%, COc1ccc(NC(=O)CCc2c(C)nc3nc(CNC(=O)OC(C)(C)C)nn3c2C)cc1OC 1.47%, COc1ccc(CC2C(=O)Nc3ccc(Br)cc32)cc1OC (configuration not stated) -3.35%, O=C(Nc1ccc(F)c(Cl)c1)C1CCCN(c2cnccn2)C1 (configuration not stated) -6.57%, CC1CCN(S(=O)(=O)c2ccc3c(ccn3CCC(=O)NCc3ccc(N(C)C)cc3)c2)CC1 -0.713%, CCc1ccccc1NC(=O)N1CCN(C(=O)c2nsc3ccccc23)CC1 -29.2%, COc1cc(NC(=O)CC(C)n2nc(C)cc2C)cc(OC)c1 (configuration not stated) 2.57%, CC1CCN(S(=O)(=O)c2nnc(NC(=O)c3cccc(Br)c3)s2)CC1 -9.08%, CCS(=O)(=O)N1CCc2cc(C(=O)NCCc3ccc(OC)cc3)ccc21 -6.07%, O=C(NCCc1ccccc1)C(=O)NCC(c1ccc2c(c1)OCO2)N1CCOCC1 (configuration not stated) -1.48%, CCNc1nc(NC(C)(C)C)nc(Oc2ccc(=O)n(C)n2)n1 5.33%, COc1cc(NC(=O)C(CCSC)NS(=O)(=O)c2ccc3c(c2)oc(=O)n3C)cc(OC)c1 (configuration not stated) 3.36%, Cc1ccc(-c2nnc3ccccc3c2C(=O)Nc2ccccc2F)cc1 -17.9%, CCOc1ccccc1C(=O)N(Cc1ccccc1F)C1CCS(=O)(=O)C1 (configuration not stated) -14.4%, O=C(CCC1N=C2c3ccccc3N=C(SCc3ccccc3F)N2C1=O)NCc1ccc(F)cc1 (configuration not stated) 4.62%

outcome, inactive:
CCc1cccc(C)c1NC(=O)CSc1nc2ccccc2nc1N1CCOCC1, Cc1nn2c(C)c(C(=O)NCC(C)c3ccccc3)cnc2c1-c1ccccc1 (configuration not stated), CCOc1ccc(CCNC(=O)Cn2nc(CC)n3c(cc4sccc43)c2=O)cc1, CCC(C(=O)NCc1ccccc1Cl)n1nc(C)c2sc3ccccc3c2c1=O (configuration not stated), Cc1cccc(NC(=O)CSc2nccn2-c2cccc(Cl)c2)c1C, O=c1cc(-c2ccccc2)n2c(SCc3cccc([N+](=O)[O-])c3)nnc2[nH]1, O=C(CCCn1c(=O)c2sccc2n(Cc2cccc(Cl)c2)c1=O)NCc1ccc2c(c1)OCO2, COc1ccc(-c2oc3ncn4nc(-c5ccccc5C)nc4c3c2-c2ccc(OC)cc2)cc1, COc1ccc(CNC(=O)CCc2nnc3n(CC(C)C)c(=O)c4ccccc4n23)cc1, O=S(=O)(Nc1ccc(-c2ccc(N3CCCC3)nn2)cc1)c1cccc(C(F)(F)F)c1, CCn1ccc2cc(S(=O)(=O)N3CCCN(C(=O)NCCOC)CC3)ccc21, COc1ccc(C)cc1NS(=O)(=O)c1ccc2[nH]c(=O)c(=O)[nH]c2c1, O=c1c2ccccc2n(Cc2ccccc2F)c(=O)n1-c1cccc(F)c1, CCOC(=O)c1cnc2c(ccc3ccccc32)c1Nc1ccc(Cl)cc1, COc1ccc(-c2cn3nc(N4CCCC(C(=O)NCc5ccccc5OC)C4)sc3n2)cc1 (configuration not stated), O=C(CCn1c(=O)c2sccc2n(Cc2cccc(F)c2)c1=O)NCc1ccc2c(c1)OCO2, COc1cccc2cc(C(=O)NCCc3c(C)[nH]c4ccc(F)cc34)c(=O)oc12, CCc1ccc(NC(=O)CC2C(=O)N(c3cccc(C)c3)C(=O)N2Cc2ccco2)cc1 (configuration not stated), CC(=O)N1CCCC1c1nc2ccccc2n1Cc1ccccc1C (configuration not stated), COc1ccc(Cl)cc1NC(=O)CSc1cn(CC(=O)N2CCCCCC2)c2ccccc12, Cc1ccc(NC(=O)Cn2c(=O)n(CCC(=O)NCc3ccccc3Cl)c(=O)c3ccccc32)cc1, CC(C)(C)c1ccc(C(=O)N2CCC(c3nc4ccccc4o3)CC2)cc1
